Screen size: about 150,000 compounds; about 540 (0.36%) showed an effect of 50% or more. The list shows a part of the results.

Usually % Inhibition stands for the drop in the measured response relative to a control, in per cent.

The assay deals with Plasmodium falciparum. The assay is described as follows: Primary screen in NF54 nanoGlo assay, in single point, at 2uM, 72h; a lower Z score goes with more inhibition. Type of assay: functional, Erythrocyte. Particulars: timepoint 72 hour.
Consider `CS(=O)(=O)N(Cc1ccccc1F)Cc1nnc2n1CCOCC2`, for which the “% Inhibition” value was found to be 22% and the Z score is on record as -2.81.

Take `COc1ccc(NC(C)(C)C(=O)N2CCCN(S(=O)(=O)N3CCCC3)CC2)cc1`: the “% Inhibition” value worked out at 10% and the Z score was -2.03.

For the molecule `CS(=O)(=O)N1CC(CNc2ccnc3c(F)cccc23)C1`, the “% Inhibition” value was 6% and the Z score is -0.73.

In the case of `O=C(NCc1ccc(-c2cccc(Cl)c2)o1)[C@H]1CCC[C@H](O)C1`, the “% Inhibition” value is -17% and the Z score is given as 2.97.

Consider `Cc1c(C(=O)NCC2CCN(c3noc(-c4ccccc4)n3)CC2)cnn1C`, for which the “% Inhibition” value is -10% and the Z score is listed as 1.97.

As for `O=C(CCc1cc(Br)ccc1OC(F)F)N1CC[C@H](N2C(=O)COC2=O)C1`, the “% Inhibition” value came out at 15% and the Z score is on record as -1.73.

In the case of `CN(CCC[C@H]1CCCO1)C(=O)c1ccc(-c2nccs2)cc1`, the “% Inhibition” value is on record as -17% and the Z score was determined as 1.6.

Regarding `COc1ccc(-c2nsc(C(=O)NCc3ccc(C)cc3)c2N)cc1`, the “% Inhibition” value is reported as -29% and the Z score is on record as 3.37.

`CCN(CC)Cc1nnc(C(C)(C)C)o1`: the “% Inhibition” value is given as -4% and the Z score worked out at 0.38.

For `CC1CCN(C(=O)c2ccc3c(c2)NC(=O)[C@@H]2CCCCN32)CC1`, the “% Inhibition” value is given as -13% and the Z score is recorded as 2.44.

On to `O=C(Cc1ccc(F)cc1)N[C@H]1CC(=O)N(c2ccc3c(c2)OCCO3)C1`, for which the “% Inhibition” value is on record as -8% and the Z score is 1.55.

Consider `COc1ccc(C(=O)N(CC(=O)Nc2nc(-c3ccc(Cl)cc3)cn2-c2ccc(C)cc2)Cc2ccccc2)cc1`, for which the “% Inhibition” value amounted to 5% and the Z score was -0.62.

On to `O=C(c1cccs1)N1CCN(c2ccc(N3CCCC3)nn2)CC1`, for which the “% Inhibition” value is recorded as -13% and the Z score is 2.54.

For `COC1(CNC(=O)Nc2nc(C)c(Cc3ccc(C)cc3)s2)CCOCC1`, the “% Inhibition” value is -18% and the Z score was 2.36.

On to `Cc1cc(C)c(NC(=O)CCC(=O)NCc2csc(N)n2)c(C)c1`, for which the “% Inhibition” value is listed as -12% and the Z score is reported as 1.49.

Consider `COc1ccccc1-n1nccc1CNC[C@H]1CCC[C@H]1C(=O)O`, for which the “% Inhibition” value is on record as 1% and the Z score is -0.21.

`CC(C)C1CCCCN1C(=O)[C@H]1CCC(=O)N1` (some centres undefined): the “% Inhibition” value is listed as -6% and the Z score worked out at 1.12.

On to `CCCc1nc(-c2c(C)cc(C)nc2NC(=O)c2ccc(F)cc2F)no1`, for which the “% Inhibition” value is -16% and the Z score is given as 2.16.

Consider `COc1ccc2[nH]c3c(c2c1)CCN(C)C31CCN(C(=O)c2ccccc2F)CC1`, for which the “% Inhibition” value came to 6% and the Z score is on record as -1.24.

Take `CC[C@H](NCc1cc(O)c2cccc(F)c2n1)c1cccnc1`: the “% Inhibition” value is -3% and the Z score is 0.51.

For `CCNC(=O)Nc1ccc2c(c1)CN(S(=O)(=O)c1cccc(OC)c1)CCO2`, the “% Inhibition” value is recorded as -2% and the Z score stood at 0.45.

On to `CCc1cc(CNC(=O)N[C@@H](C)CCc2cccn2C)[nH]n1`, for which the “% Inhibition” value is -7% and the Z score was determined as 0.85.

Turning to `Nc1ccn2ncc(C(=O)N[C@@]34COC[C@@H]3C4)c2c1`, the “% Inhibition” value came out at 25% and the Z score was -3.83.

For `C[C@@H]1CN(c2cccc(C(=O)O)n2)CC[C@]1(C)O`, the “% Inhibition” value is -3% and the Z score is listed as 0.6.

Regarding `CO[C@H]1CCN(c2nnc(-c3n[nH]c4c3CCCC4)n2CC(C)C)C1`, the “% Inhibition” value is 2% and the Z score is listed as -0.32.

Turning to `Cc1cc(C)n([C@@H](CNS(=O)(=O)C2CC2)c2ccsc2)n1`, the “% Inhibition” value was 19% and the Z score was -2.58.

Take `Cc1cccc(C2CC(N[C@@H](C)CN3CCN(C)CC3)C2)c1` (some centres undefined): the “% Inhibition” value is reported as -6% and the Z score worked out at 0.97.

With `COc1ccc(-n2cc(-c3ccnc(N4CCN(C)C(=O)C4)n3)cn2)cc1`, the “% Inhibition” value is -4% and the Z score is recorded as 0.83.

As for `CN1CCC2(CCN(C3CC(OCc4ccccc4)C3)CC2)C1=O` (centres undefined), the “% Inhibition” value is recorded as -10% and the Z score came out at 1.51.

As to `CN(C)CC1(O)CCC2(CCN(C(=O)c3ccc(F)cc3)CC2)CC1`, the “% Inhibition” value was -12% and the Z score was found to be 1.79.

As to `O=C(CCc1ccccc1Cl)N[C@H]1CCCCNC1=O`, the “% Inhibition” value was -8% and the Z score is given as 0.68.

For the molecule `COc1ccccc1Nc1c(C(=O)N2CCC(C)CC2)cnc2nc(C)ccc12`, the “% Inhibition” value is -6% and the Z score is 0.88.

On to `COCCN(CCOC)c1nc(S(=O)(=O)c2ccc(C)cc2)c(Cl)s1`, for which the “% Inhibition” value is -14% and the Z score came out at 1.78.

Regarding `CCCC1CCC2(C)c3[nH]c4ccccc4c3CCCN2C1` (centres undefined), the “% Inhibition” value is listed as 3% and the Z score is listed as -0.53.

As for `CC(=O)Nc1[nH]nc(C2CCCC2)c1-c1ccc2c(c1)OCO2`, the “% Inhibition” value is -7% and the Z score is reported as 0.95.

With `CS(=O)(=O)Cc1noc(-c2ccc(N3CCCCC3)cc2)n1`, the “% Inhibition” value is recorded as -14% and the Z score worked out at 1.69.

Consider `CCCN(Cc1nccn1CCOC)C1Cc2ccccc2C1`, for which the “% Inhibition” value was -1% and the Z score is 0.29.

As to `O=C(Cc1cccc(O)c1)N1CCC2(CCC(=O)N(Cc3ccccc3)C2)CC1`, the “% Inhibition” value was -6% and the Z score turned out to be 0.98.

As for `N=C1N=C2c3ccccc3CN2Cc2ccccc21`, the “% Inhibition” value is reported as -7% and the Z score is on record as 0.86.

With `Cn1ccc(C2CCN(C(=O)[C@@H]3CC=CCC3)CC2)n1`, the “% Inhibition” value is -11% and the Z score is 1.37.

Consider `CC(C)N1C[C@@H](C(=O)NCCOCc2ccc(Cl)cc2)CC1=O`, for which the “% Inhibition” value is given as -1% and the Z score is listed as 0.2.

`CC(C)N(C)C(=O)[C@H](C)S(=O)(=O)CC1CCCCC1`: the “% Inhibition” value is -15% and the Z score was found to be 1.99.

Values taken from ChEMBL document CHEMBL4888484, “Replenishing the malaria drug discovery pipeline: Screening and hit evaluation of the MMV Hit Generation Library 1 (HGL1) against asexual blood stage Plasmodium falciparum ,using a nano luciferase reporter read-out” (2022).
